# In PubChem BioAssay AID1671188 (National Center for Advancing Translational Sciences (NCATS), 2021):
# Where “and” joins values, the source holds several entries; their conditions need not be identical. Equal entries are not always repeated. Out of some 100,000 compounds screened, about 250 (0.25%) were called active. This list was built around the results that the source calls inconclusive (neither active nor inactive); the mix of calls is not that of the screen. Calls come from the whole dose curve; as a rule, active = well fitted inhibition curve with a large enough effect; inconclusive = small, poorly fitted or top-dose-only effect; inactive = flat fitted curve, though single readings scatter. No potency is given beside an inconclusive call; the fits are too rough. Some compounds were tested as several samples or in several runs, with calls that do not always agree.
# Biological target: Alanine aminotransferase 2 (Homo sapiens) (UniProt Q8TD30)
# Chain of UniProt Q8TD30 (Q8TD30 whole entry, looked up): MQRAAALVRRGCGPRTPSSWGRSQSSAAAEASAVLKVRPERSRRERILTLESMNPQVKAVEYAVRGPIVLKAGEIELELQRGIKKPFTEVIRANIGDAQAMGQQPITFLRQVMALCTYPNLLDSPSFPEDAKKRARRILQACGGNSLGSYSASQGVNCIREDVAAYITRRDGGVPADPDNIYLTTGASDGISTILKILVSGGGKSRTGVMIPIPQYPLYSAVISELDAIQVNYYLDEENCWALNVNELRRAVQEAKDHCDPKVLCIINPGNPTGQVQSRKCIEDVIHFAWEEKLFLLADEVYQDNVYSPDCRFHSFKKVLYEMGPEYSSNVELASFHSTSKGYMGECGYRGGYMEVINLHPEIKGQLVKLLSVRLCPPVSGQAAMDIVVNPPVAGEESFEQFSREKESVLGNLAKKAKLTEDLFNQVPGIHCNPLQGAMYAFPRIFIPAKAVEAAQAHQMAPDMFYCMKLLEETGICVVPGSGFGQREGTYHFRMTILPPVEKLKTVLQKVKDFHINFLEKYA
# Assay: Primary qHTS assay for inhibitors of Glutamate pyruvate transaminase 2 (GPT2); note: nearly all actives have a fitted effect of over 60% in size
# Conditions: Recombinant GPT2, coupled pyruvate oxidase/HRP Amplex Red fluorescence; series mostly up to 57.7 µM
# In short: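 Inhibition is scored from Amplex Red fluorescence generated when pyruvate oxidase and HRP act on pyruvate released by GPT2. Reactions contain 10ng/uL enzyme, 250uM a-KG and 2mM L-alanine and run 30 min at room temperature.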
# Potency is the fitted concentration of half-maximal effect; tags give direction and shape of the fitted curve.
row,SMILES,Potency
1,CCn1cc(S(=O)(=O)N2CCC(c3ncc(C)n3Cc3ccccc3)C2)cn1 (configuration not stated),inactive
2,O=C(C=Cc1ccc(CN(CCO)CCc2c[nH]c3ccccc23)cc1)NO,"inconclusive [inhibitor, single point]"
3,COCCC(=O)N1CC(c2nc(CCOc3cccc(C)c3)no2)C1,"inconclusive [inhibitor, partial curve, poor fit]"
4,O=C1C[C@@H]2CCN(C(=O)c3ccccc3)C[C@@H]2CCN1CCN1CCNC1=O,"inconclusive [inhibitor, single point]"
5,COc1cc(C)c(C(=O)NC2C(C)OC(OC3CCC(C)C4C3C=C(C)C3/C(C)=C\CC/C(C)=C/C5(C)C=C(C(=O)O)C(C)CC56OC(=O)/C(=C(\O)C34C)C6=O)C(O)C2(C)O)c(O)c1 (configuration not stated),"inconclusive [inhibitor, single point]"
6,COc1ccc(N2Cc3c(NCC(C)(C)C)ncnc3N(C)CC2=O)cc1,"inconclusive [inhibitor, single point]"
7,Cc1ccc(CN2CCC3OCCN(Cc4ccccc4)C(=O)C3C2)o1 (configuration not stated),"inconclusive [inhibitor, full curve, poor fit]"
8,C[S+](=O)([O-])CCn1ncc2cc(OCc3cccc(-c4ccc(Cl)cc4)c3)ccc21,"inconclusive [inhibitor, full curve, poor fit]"
9,O=C(C1CCCN1C(=O)c1ccccc1F)N1CCC(N2CCCC2=O)CC1 (configuration not stated),inactive
10,CN1CCc2cc(Cl)c(O)cc2[C@@H](c2cccc3c2OCC3)C1,inactive
11,Cc1cc(C(F)(F)F)nc(CCNc2cc(C3CC(N)C3)nc(N)n2)n1 (configuration not stated),"inconclusive [inhibitor, full curve, poor fit]"
12,Cc1cc(=O)n(CC(=O)Nc2cc(C)on2)c(N2CCOCC2)n1,inactive
13,CCOC(=O)c1ccc(O)c(O)c1,active: 28.2 µM
14,CN1CCN(c2cc(N3CC[C@H](CO)[C@H](O)C3)nc(N)n2)CC1,"inconclusive [inhibitor, single point]"
15,Cc1cc(C)c(CNC(=O)c2cc(-c3cccnc3)cc3c2OCCN3C(C)C)c(=O)[nH]1,inactive
16,CN1CCOc2c(C(=O)NCc3cccnc3)cc(-c3ccc(N4CCOCC4)cc3)cc21,inactive
17,O=C(c1ccoc1)N1CCC(N2C(=O)C3(CCCCC3)C2c2ccncc2)CC1 (configuration not stated),"inconclusive [inhibitor, single point]"
18,CN(CC(N)=O)C(=O)[C@@H]1[C@@H](NC(=O)Nc2ccc(F)cc2F)CCN1C(=O)c1cccn1C,"inconclusive [inhibitor, full curve, poor fit]"
19,O=C(NC1CCCCCC1)c1cn2cc(-c3ccc(C(F)(F)F)cc3)sc2n1,inactive
20,COCC(=O)N1CCN2C(=O)c3cc(-c4ccc(OC)cc4)ccc3NC(=O)[C@H]2C1,"inconclusive [inhibitor, single point]"
21,COC(=O)c1ccc(CN2C(=O)[C@@H]3C[C@@H](O)CN3C3(CN(CC(C)C)C3)C2=O)cc1,"inconclusive [inhibitor, single point]"

row,SMILES,Potency
1,CN(C)c1cccc(-c2c3c(=O)n(-c4ccccc4Cl)[nH]c3cc(=O)n2C)c1,inactive and active: 15.3 µM
2,CC(=O)Nc1ccc(CN2CCN3C(=O)N(Cc4ccc(C)cc4)C[C@H]3C2)cc1,inactive
3,O=C(NCCCN1CCCc2ccccc21)C1Cn2cccc2C(=O)N1Cc1ccccc1 (configuration not stated),inactive
4,O=C(N[C@H]1CCN2C(=O)c3cc(-c4ccccc4F)ccc3NC(=O)[C@H]12)c1cnccn1,inactive
5,CN(C)C(=O)Cc1c[nH]c2ncc(-c3cnn(C)c3)cc12,"inconclusive [inhibitor, full curve, poor fit]"
6,Cc1nc(N2CCC(C(=O)NC3CCCCCC3)CC2)cc(C(F)(F)F)n1,"inconclusive [inhibitor, single point]"
7,CN1Cc2nc(NCCOc3ccccc3)ccc2OCC1=O,inactive
8,O=c1c2nc(-c3ccc4c(c3)OCO4)ccc2ncn1-c1ccc(F)cc1F,"inconclusive [inhibitor, full curve, poor fit]"
9,COc1ccccc1-c1cc(C(=O)N2CCCC2)nn2cccc12,"inconclusive [inhibitor, single point]"
10,CC(C)(C)CC(=O)Nc1nc2c(s1)C[C@@H]1[C@](C)(CO)[C@H](O)CC[C@@]1(C)[C@@H]2CC(=O)Nc1cccc(O)c1,inactive
11,COc1cccc([S+](=O)([O-])N2CCC3(CC(C(C)C)=NO3)C2)c1 (configuration not stated),"inconclusive [inhibitor, single point]"
12,COc1cccc(-c2ccc(C(=O)N3CCC(NC(=O)NC4CCCC4)CC3)cc2)c1,"inconclusive [inhibitor, single point]"
13,O=C(CCc1ccccc1)N1CCC2(CC1)NC(=O)N(c1ccccc1)N2,"inconclusive [inhibitor, partial curve, poor fit]"
14,COc1ccc(C2CC(c3ccccc3)=NN2c2ccc(S(N)(=O)=O)cc2)cc1 (configuration not stated),inactive
15,COCCNC(=O)c1cn2ccnc(-c3ccc(C)cc3)c2n1,"inconclusive [inhibitor, full curve, poor fit]"
16,COCCNC(=O)C1CCCCN1Cc1ccc(-c2ccsc2)cc1 (configuration not stated),"inconclusive [inhibitor, full curve, poor fit]"
17,Cn1nc2n(c1=O)CCN(Cc1ccc3c(c1)CCO3)CC2,"inconclusive [inhibitor, single point]"
18,COc1ccc(CNC(=O)C[C@@H]2CCNC[C@@H]2Cc2cc(-c3ccc(OC)cc3)on2)cc1,inactive
19,OC1CC(c2cc(N3CCC(Cc4noc(C5CC5)n4)CC3)ncn2)C1 (configuration not stated),"inconclusive [inhibitor, single point]"
20,Cc1cccc(C)c1Oc1ncccc1CNC(=O)CCN1CCCCO1,inactive
21,O=C(NCc1cccc(C(F)(F)F)c1)c1ccc2nnc(Cc3ccc(Cl)cc3)n2c1,inactive
